{
  "source": "patent US11524046B2",
  "about": "“Biofilm prevention, disruption and treatment with bacteriophage lysin” (priority 2012, dated 2022)",
  "molecules": {"B1": {"name": "PlySs2: bacteriophage lysin derived from Streptococcus suis, amino acid sequence of FIG. 5 / SEQ ID NO: 1; CHAP and SH3 domains (protein, listed as Streptococcus suis)", "chain": "MTTVNEALNNVRAQVGSGVSVGNGECYALASWYERMISPDATVGLGAGVGWVSGAIGDTISAKNIGSSYNWQANGWTVSTSGPFKAGQIVTLGATPGNPYGHVVIVEAVDGDRLTILEQNYGGKRYPVRNYYSAASYRQQVVHYITPPGTVAQSAPNLAGSRSYRETGTMTVTVDALNVRRAPNTSGEIVAVYKRGESFDYDTVIIDVNGYVWVSYIGGSGKRNYVATGATKDGKRFGNAWGTFK"}},
  "test_system": "S. aureus (MRSA strain ATCC BAA-42) biofilm",
  "experiment": "In vivo catheter-based biofilm model, subcutaneous implant in mice, methylene blue staining",
  "details": "single bolus 100 μg, catheters removed 6 hrs post treatment",
  "protocol": "A catheter-based model was evaluated using catheters situated subcutaneous in flank, intraperitoneal or intramuscular into the thigh (modified from Zhu Y et al (2007) Infect Immunol 75(9):4219-4226). This catheter-based murine model is used to assess the impact of PlySs2 on biofilm viability in vivo. […] The lumen of each 2 inch catheter is inoculated with 200 μl of Tryptic Soy Broth (TSB) supplemented with 0.25% glucose containing 2×10^7 CFU of S. aureus, and biofilms are grown for 72 hours at 37° C. Alternatively, catheters are cut into 2 mm segments and placed in 1.0 ml of inoculated TSB supplemented with 0.25% glucose, and catheter segments are passaged daily into fresh medium for three days prior to implantation. Anesthesia is induced in 6-8 week old Balb/c mice by intraperitoneal injection of 0.15 ml of 100 mg/kg ketamine and 10 mg/kg xylazine (Butler-Schein). Catheter segments are implanted subcutaneously in each flank of the mice, or alternatively into the intraperitoneal space or thigh muscle. Groups of 5-10 mice were implanted with biofilm. Mice are treated with an appropriate amount of PlySs2, antibiotic or vehicle, or combination of PlySs2+antibiotic 1-24 hours post implantation. All mice from each group were humanely sacrificed at 1-4 days post-infection. To quantify biofilm formation, infected catheters were removed immediately after sacrifice, gently washed three times in sterile PBS to remove non-adherent bacteria, and subsequently placed in 5 ml of sterile PBS. Adherent bacteria are removed from the catheters by sonication. The number of recovered bacteria is then quantified by serial dilution and plate counting on the appropriate selective media. […] Methylene Blue stain can then be quantified by destaining in 0.2 ml of 30% acetic acid at room temperature and the absorbance read at 600 nm. The extent of residual biofilm mass is expressed as the absorbance reading at 600 nm divided by the weight of the catheter segment (OD600/gm). […]",
  "data": [
    {"molecule": "B1", "values": [
      {"measurement": "methylene blue staining of implanted catheter", "setting": "intraperitoneally (IP)", "result": "reduced staining"},
      {"measurement": "methylene blue staining of implanted catheter", "setting": "intravenously (IV)", "result": "reduced staining"},
      {"measurement": "methylene blue staining of implanted catheter", "setting": "subcutaneously (SC)", "result": "elimination of staining in the catheter to near control levels"}
    ]}
  ]
}
